# Data as given in the supplement of paper PMC8728848.
# The other results are listed elsewhere or left out.
# B1: Pbx2 (Cryptococcus neoformans) (protein)
# chain: AVSPLPSSTELVFYSQKRRRRRICSTATGSLSTPDPTRMTSDPYKRVGMRFSSVPRLLITFLSLLLLVSAAPPCVRFADYDSINQMFIDGGPGTKVLLCPNRLYRLSGPIIFTAADQEIATYGYPTGSERAVLRVEGRNTATAIQGDCRRCARVSVKNLVVDGNRKKLGRMRDFQLATGLVVLGGNEGQSIQNSWIKNPRGFTAIHIREGDKLQCSGARVEKNEIGPVGEEYDPEKDGDDPEMSPLGRPLADGVSIACRDSFIRDNTFRDNTDAAIVVYCSPGTLIHANHIFAQSLSAMAGILMVDSTPFNGDYTGTVVRSNIIDAVSRTIRVGIGIGPTVWSDDTETILTGGSVIGNGLKGRYMGYGIAAAGLKQWTIKDNWDEAKHEGRKSARCFDEPVNPDPIGLLYNRPTMEDCTVQSGFADHDFQYLVCIDGLYDKTNPPKHDPAPLAHDPSPTNAQEDNTVQQDGGDSKSKSIEQPREASDIEAEPSVEKMFSTGSEMMDDVLEHSHQRMHEVIDHLSRRIDILGAASAGKGSGDSKISEVLDPAMSSHLEKLQRKIEHLEFSLRSQIETAIQLRSAIQGWDQEMALVTDWEYDILLDVRHKLELSSYPHDQPLDPRLMRGQSYLNNEAVLVDDHSHPSLEGENLRAMSDRARLNANEEA
# Experiments:
# Test in all cases: glycan array binding signal (z-score within array); higher = stronger binding
# Settings in all cases: glycan notation: IUPAC condensed, linker removed
# Neu5Ac(a2-8)Neu5Ac = target: Neu5Ac(a2-8)Neu5Ac
# How it was run: (§1)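 Columns mapping to the same glycan were averaged after glycan names were converted to IUPAC-condensed notation. The data come from 3228 arrays in the Consortium for Functional Glycomics database, limited to those with an available protein sequence. Binding is reported as a within-array Z-score averaged across arrays of one protein sequence and across linkers.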
# [1] = target: Neu5Ac(a2-8)Neu5Ac(a2-3)Gal(b1-3)GalNAc(b1-4)[Neu5Ac(a2-3)]Gal(b1-4)Glc
# How it was run: as §1
# [2] = target: Neu5Ac(a2-8)Neu5Ac(a2-3)Gal(b1-3)GalNAc(b1-4)[Neu5Ac(a2-8)Neu5Ac(a2-3)]Gal(b1-4)Glc
# How it was run: as §1
# [3] = target: Neu5Ac(a2-8)Neu5Ac(a2-3)Gal(b1-4)Glc
# How it was run: as §1
# [4] = target: Neu5Ac(a2-8)Neu5Ac(a2-3)Gal(b1-4)GlcNAc
# How it was run: as §1
# [5] = target: Neu5Ac(a2-8)Neu5Ac(a2-3)[Gal(b1-3)GalNAc(b1-4)]Gal(b1-4)Glc
# How it was run: as §1
# [6] = target: Neu5Ac(a2-8)Neu5Ac(a2-3)[GalNAc(b1-4)]Gal(b1-4)Glc
# How it was run: as §1
# [7] = target: Neu5Ac(a2-8)Neu5Ac(a2-8)Neu5Ac
# How it was run: as §1
# [8] = target: Neu5Ac(a2-8)Neu5Ac(a2-8)Neu5Ac(a2-3)Gal(b1-4)Glc
# How it was run: as §1
# [9] = target: Neu5Ac(a2-8)Neu5Ac(a2-8)Neu5Ac(a2-3)[Gal(b1-3)GalNAc(b1-4)]Gal(b1-4)Glc
# How it was run: as §1
# [10] = target: Neu5Ac(a2-8)Neu5Ac(a2-8)Neu5Ac(a2-3)[GalNAc(b1-4)]Gal(b1-4)Glc
# How it was run: as §1
# [11] = target: Neu5Ac(a2-8)Neu5Ac(a2-8)Neu5Ac(a2-8)Neu5Ac(a2-3)[GalNAc(b1-4)]Gal(b1-4)Glc
# How it was run: as §1
# [12] = target: Neu5Ac(a2-8)Neu5Gc(a2-3)Gal(b1-4)GlcNAc
# How it was run: as §1
# [13] = target: Neu5Ac(b2-6)Gal(b1-4)GlcNAc
# How it was run: as §1
# Neu5Ac(b2-6)GalNAc = target: Neu5Ac(b2-6)GalNAc
# How it was run: as §1
# [14] = target: Neu5Ac9Ac(a2-3)Gal(b1-4)GlcNAc
# How it was run: as §1
# [15] = target: Neu5Ac9Ac(a2-6)Gal(b1-4)GlcNAc
# How it was run: as §1
# [16] = target: Neu5Gc(a2-3)Gal(b1-3)GlcNAc
# How it was run: as §1
# [17] = target: Neu5Gc(a2-3)Gal(b1-3)[Fuc(a1-4)]GlcNAc
# How it was run: as §1
# Neu5Gc(a2-3)Gal(b1-4)Glc = target: Neu5Gc(a2-3)Gal(b1-4)Glc
# How it was run: as §1
# [18] = target: Neu5Gc(a2-3)Gal(b1-4)GlcNAc
# How it was run: as §1
# [19] = target: Neu5Gc(a2-3)Gal(b1-4)GlcNAc(b1-3)Gal(b1-4)GlcNAc(b1-2)Man(a1-3)[Neu5Gc(a2-3)Gal(b1-4)GlcNAc(b1-3)Gal(b1-4)GlcNAc(b1-2)Man(a1-6)]Man(b1-4)GlcNAc(b1-4)GlcNAc
# How it was run: as §1
# [20] = target: Neu5Gc(a2-3)Gal(b1-4)[Fuc(a1-3)]GlcNAc
# How it was run: as §1
# [21] = target: Neu5Gc(a2-6)Gal(b1-4)GlcNAc
# How it was run: as §1
# Neu5Gc(a2-6)GalNAc = target: Neu5Gc(a2-6)GalNAc
# How it was run: as §1
# [22] = target: Neu5Gc(a2-8)Neu5Ac(a2-3)Gal(b1-4)GlcNAc
# How it was run: as §1
# [23] = target: Neu5Gc(a2-8)Neu5Gc(a2-3)Gal(b1-4)GlcNAc
# How it was run: as §1
# [24] = target: Neu5Gc(a2-8)Neu5Gc(a2-3)Gal(b1-4)GlcNAc(b1-3)Gal(b1-4)GlcNAc
# How it was run: as §1
# [25] = target: Neu5Gc(a2-8)Neu5Gc(a2-6)Gal(b1-4)GlcNAc
# How it was run: as §1
# [26] = target: Neu5Gc(b2-6)Gal(b1-4)GlcNAc
# How it was run: as §1
binder,measurement,setting,value
B1,glycan array binding signal (z-score),Neu5Ac(a2-8)Neu5Ac,-0.332
same,glycan array binding signal (z-score),[1],-0.583
same,glycan array binding signal (z-score),[2],0.024
same,glycan array binding signal (z-score),[3],-0.602
same,glycan array binding signal (z-score),[4],-0.348
same,glycan array binding signal (z-score),[5],0.256
same,glycan array binding signal (z-score),[6],-0.131
same,glycan array binding signal (z-score),[7],-0.256
same,glycan array binding signal (z-score),[8],-0.428
same,glycan array binding signal (z-score),[9],-0.715
same,glycan array binding signal (z-score),[10],0.212
same,glycan array binding signal (z-score),[11],-0.399
same,glycan array binding signal (z-score),[12],-0.248
same,glycan array binding signal (z-score),[13],-0.406
same,glycan array binding signal (z-score),Neu5Ac(b2-6)GalNAc,-0.522
same,glycan array binding signal (z-score),[14],0.189
same,glycan array binding signal (z-score),[15],-0.631
same,glycan array binding signal (z-score),[16],-0.243
same,glycan array binding signal (z-score),[17],-0.266
same,glycan array binding signal (z-score),Neu5Gc(a2-3)Gal(b1-4)Glc,-0.241
same,glycan array binding signal (z-score),[18],-0.329
same,glycan array binding signal (z-score),[19],-0.362
same,glycan array binding signal (z-score),[20],-0.117
same,glycan array binding signal (z-score),[21],-0.317
same,glycan array binding signal (z-score),Neu5Gc(a2-6)GalNAc,-0.472
same,glycan array binding signal (z-score),[22],0.079
same,glycan array binding signal (z-score),[23],-0.028
same,glycan array binding signal (z-score),[24],-0.158
same,glycan array binding signal (z-score),[25],-0.088
same,glycan array binding signal (z-score),[26],-0.43
